Read counts are not given, so values of variants with three or more changes are uncertain.
B1: CPEB3 Ribozyme (parent)
chain: UAACAGGGGGCCACAGCAGAAGCGUUCACGUCGCAGCCCCUGUCAGAUUCUGGUGAAUCUGCGAAUUCUGCUGUAUAUCUC

Variants of: B1
Assay: self-cleavage, relative activity (ratio to wild type); higher = more cleavage; in vitro, sequencing
How it was run: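 For each CPEB3 ribozyme variant, relative activity is its cleaved/total read fraction divided by the unmutated ribozyme's. Barcoded error-prone PCR libraries were transcribed by T7 RNA polymerase (5 hours, 37°C) and held in DNase I for 15 min before an EDTA stop, with cleavage occurring throughout. Template-switching reverse transcription and Illumina sequencing were used to read the RNAs. A 5-read minimum applied, and results are the mean of three batches.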

Variant | self-cleavage
UAACAGGGGGCCACGGCAGAAGCGUUCACGUCGCAGCCCCUGUCAGAUCCCGGUGAUUCUGCGAAUUCUGCUGCAUAUCUC [A15G U49C U51C A57U U74C] | 0.28
UAACAGGGGGCCACGGCAGAAGCGUUCACGUCGCAGCCCCUGUCAGAUCCUGGAGAAUCUGCGAAUUCUGCCGUUUAUCAC [A15G U49C U54A U72C A75U U80A] | 0.83
UAACAGGGGGCCACGGCAGAAGCGUUCACGUCGCAGCCCCUGUCAGAUUCUGGUGAACCUGCGAAUUCUGCUGUAUAUCAC [A15G U58C U80A] | 0.35
UAACAGGGGGCCACGGCAGAAGCGUUCACGUCGCAGCCCCUGUCAGACUCUGGUGAGUCUGCGGAUUCUGCUGCAUAUCUC [A15G U48C A57G A64G U74C] | 1.28
UAACAGGGGGCCACGGCAGAAGCGUUCACGUCGCAGCCCCUGUCAGACUCUGGUGAAUCUGCGAGCUCUGCUGUAUAUCUC [A15G U48C A65G U66C] | 0.26
UAACAGGGGGCCACGGCAGAAGCGUUCACGUCGCAGCCCCUGCCAGAUCCUGGUGAAUCUGCGAAUUCUGCUGUAUAACUC [A15G U43C U49C U78A] | 0.06
UAACAGGGGGCCACGGCAGAAGCGUUCACGUCGCAGCCCCUGUCAGAUUCUGGCGAAUAUGCGUAUUCUGCUGUAUAUCCC [A15G U54C C59A A64U U80C] | 0.17
UAACAGGGGGCCACGGCAGAAGCGUUCACGUCGCAGCCCCUGUCAGAUUCAGGUGUAACUGCGAAUCCUGCUGUAUAUCUC [A15G U51A A56U U58A U67C] | 0.21
UAACAGGGGGCCACGGCAGAAGCGUUCACGUCGCAGCCCCUGUCAGAUUCAGGUGAGUCUGCGAAUUCCGCAGUAUAUCUC [A15G U51A A57G U69C U72A] | 0.24
UAACAGGGGGCCACGGCAGAAGCGUUCACGUCGCAGCCCCUGCCAGAUUCUGGUGAACCUGCAAAUUCUGCCGUAUAUCUC [A15G U43C U58C G63A U72C] | 0.18
UAACAGGGGGCCACGGCAGAAGCGUUCACGUCGCAGCCCCUGUCAGAGUCUGGGGAAUCUGCGAAUUCUGCUGUAUAUCUC [A15G U48G U54G] | 0.25
UAACAGGGGGCCACGGCAGAAGCGUUCACGUCGCAGCCCCUGUCAGAUCCAGGUGAAACUGCGAACUCUGCUGUAUAACUC [A15G U49C U51A U58A U66C U78A] | 0.09
UAACAGGGGGCCACGGCAGAAGCGUUCACGUCGCAGCCCCUGUCAGAUUCUGGAGAAUCUGCGAGUACUGCUGUAUAUCAC [A15G U54A A65G U67A U80A] | 0.3
UAACAGGGGGCCACGGCAGAAGCGUUCACGUCGCAGCCCCUGUCAGAUUCCGGUGAAUCUGCGAAUUCUGCUGUAUUUCUC [A15G U51C A77U] | 0.64
UAACAGGGGGCCACGGCAGAAGCGUUCACGUCGCAGCCCCUGUCAGACUCUGGUGAAUCUGCGAAUUCUGCCGUAUAUCUC [A15G U48C U72C] | 0.98
UAACAGGGGGCCACGGCAGAAGCGUUCACGUCGCAGCCCCUGUCAGACUCUGGUGAAUCUGCGAAUUCUGCUGUGCAUCUC [A15G U48C A75G U76C] | 0.34
UAACAGGGGGCCACGGCAGAAGCGUUCACGUCGCAGCCCCUGUCAGAUUCCGGUGAAUCUGCAAAUUCUGCUGUAUAUCUC [A15G U51C G63A] | 0.43

Variant | self-cleavage
UAACAGGGGGCCACGGCAGAAGCGUUCACGUCGCAGCCCCUGUCAGAUUCAGGUGAAUCUGCGAAUUCUGCUGUUUAUCUC [A15G U51A A75U] | 0.56
UAACAGGGGGCCACGGCAGAAGCGUUCACGUCGCAGCCCCUGUCAGAUCCUGGUGAAUCUGCGAAUUCUGCUGUUUAUCUC [A15G U49C A75U] | 0.27
UAACAGGGGGCCACGGCAGAAGCGUUCACGUCGCAGCCCCUGUCAGAUCCUGGUGAAUCUGCGAGUUCUGCUGUAUAUCUC [A15G U49C A65G] | 0.08
UAACAGGGGGCCACGGCAGAAGCGUUCACGUCGCAGCCCCUGUCAGAUUCUGGAGAAUCUGCGAAUUCUGCUGCAUAUCUC [A15G U54A U74C] | 1.2
UAACAGGGGGCCACGGCAGAAGCGUUCACGUCGCAGCCCCUGUCAGAUCCUGGUGAGUCUGCGAGUUCCGCUGUAUAUCUC [A15G U49C A57G A65G U69C] | 0.04
UAACAGGGGGCCACGGCAGAAGCGUUCACGUCGCAGCCCCUGUCAGAUCCUGGUGAAUCCGCGAAUUCUGCUGUAUUUCUC [A15G U49C U60C A77U] | 0.11
UAACAGGGGGCCACGGCAGAAGCGUUCACGUCGCAGCCCCUGCCAGAUUCUGGGGAAUCUGCGAAUUCUGCUGUAUUUCUC [A15G U43C U54G A77U] | 0.5
UAACAGGGGGCCACGGCAGAAGCGUUCACGUCGCAGCCCCUGUCAGAUUCCGGUGAACCCGCGAAUUCUGCUGUAUAUCUC [A15G U51C U58C U60C] | 0.15
UAACAGGGGGCCACGGCAGAAGCGUUCACGUCGCAGCCCCUGUCAGAUUCUGGCGUAUCUGCGAAUUCUGCUGUAUAACUC [A15G U54C A56U U78A] | 0.48
UAACAGGGGGCCACGGCAGAAGCGUUCACGUCGCAGCCCCUGUCAGAUUCAGGUGAAGCUGCGAACUCUGCUGUAUAACUC [A15G U51A U58G U66C U78A] | 0.2
UAACAGGGGGCCACGGCAGAAGCGUUCACGUCGCAGCCCCUGUCAGAUUCAGGUGAAUCUGCGGAUUCUGCUGUAUAUCUC [A15G U51A A64G] | 0.75
UAACAGGGGGCCACGGCAGAAGCGUUCACGUCGCAGCCCCUGUCAGAUUCUGGGGCAUCUGCAAACUCUGCUGUAUAUCUC [A15G U54G A56C G63A U66C] | 0.19
UAACAGGGGGCCACGGCAGAAGCGUUCACGUCGCAGCCCCUGUCAGAUUCGGGUGGAUCUGCGAAUUCUGCUGUAUAUCUC [A15G U51G A56G] | 0.68
UAACAGGGGGCCACGGCAGAAGCGUUCACGUCGCAGCCCCUGUCAGAUUCUGGCGAGUCUGCGAAUUCUGCUGUAUAUCUC [A15G U54C A57G] | 0.57
UAACAGGGGGCCACGGCAGAAGCGUUCACGUCGCAGCCCCUGUCAGACUCUGGUGAGUCUGCGUAUUCUGCUGUAUAUCUC [A15G U48C A57G A64U] | 0.17
UAACAGGGGGCCACGGCAGAAGCGUUCACGUCGCAGCCCCUGUCAGAUCCUGGUGAAUCAGCGAACUCUGCUGUAUGUCUC [A15G U49C U60A U66C A77G] | 0.03
UAACAGGGGGCCACGGCAGAAGCGUUCACGUCGCAGCCCCUGUCAGAUUCUGGAGUAUCUGCGAGUUCUGCAGUAUAUCUC [A15G U54A A56U A65G U72A] | 0.26

From the RNAGym collection of RNA variant scans (doi:10.1093/nar/gkz1192)
